{"source": "the supplement of paper PMC11417369", "note": "± gives the standard deviation of the averaged measurements. This is one part of the list."}
{"system": "PfAP2-LT AP2 domain (GST-tagged)", "test": "gcPBM binding intensity (ln(normalized median fluorescence intensity)); higher = stronger DNA binding", "in_short": "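Plasmodium falciparum DNA-binding domains carrying a GST tag were expressed in E. coli and applied for 1 h, at about 25 μg on average, to an Agilent 4 × 180k array. The array held primer-extended double-stranded 36-bp intergenic genomic probes together with negative controls, and binding took place in 1× PBS with 1% milk, 0.2 mg/ml BSA, 0.5% salmon testes DNA and 0.03% Triton X-100. An Alexa488 anti-GST antibody detected bound protein, and the array was scanned at 488 nm. Binding intensity is taken as the highest Masliner-normalised natural-log median intensity across replicate spots of either probe orientation.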"}
{"sequence": "TAATTAAGCATAAATATAATTTTATATTTTATTTCC [XGTACX_negctrl_site321]", "gcPBM binding intensity (ln)": "8.3 ± 0.37"}
{"sequence": "TGCAGTCTGGAGAAAAGTACATAGTATCTGGTAGCT [XGTACX_site2547]", "gcPBM binding intensity (ln)": "8.82 ± 0.49"}
{"sequence": "TAACATAGCAATGTTTCACACACAAGAAAAAATACA [CACACA_site8747]", "gcPBM binding intensity (ln)": "9.21 ± 0.35"}
{"sequence": "TTTGTGTGTGCGTGTGCATGTTGTTTTTTTCTATAA [TGCATGCA_site17]", "gcPBM binding intensity (ln)": "9.725 ± 0.078"}
{"sequence": "AATATAATAACTTATTGTACGAAATTATATCACCTT [XGTACX_site7883]", "gcPBM binding intensity (ln)": "8.74 ± 0.43"}
{"sequence": "TATTCACATACAGAAACACACACATATATATAAATT [CACACA_site9232]", "gcPBM binding intensity (ln)": "9.31 ± 0.32"}
{"sequence": "AATTATTTATTGAGAGTGCAACAAATTATTTCAAAT [GTGCAC_site9461]", "gcPBM binding intensity (ln)": "8.44 ± 0.49"}
{"sequence": "ACATTTTAAATACGATGTACTTGAGTTTTTTTTAAA [XGTACX_site5833]", "gcPBM binding intensity (ln)": "8.43 ± 0.4"}
{"sequence": "TTTTTTTGCATGAGCAATAAAAAAGGCTTGTTCAAA [CACACA_negctrl_site1615]", "gcPBM binding intensity (ln)": "8.05 ± 0.3"}
{"sequence": "TTATATATTAAGAAATGTACGAAAAAAAAAATTATA [XGTACX_site3893]", "gcPBM binding intensity (ln)": "8.4 ± 0.59"}
{"sequence": "AAGATGATAAAATATGTACACACAGTTTATACATTT [CACACA_site9341]", "gcPBM binding intensity (ln)": "8.93 ± 0.47"}
{"sequence": "TATAATAATAATAATAATAATAATAATAATAATAAT [CACACA_negctrl_site905]", "gcPBM binding intensity (ln)": "8.66 ± 0.35"}
{"sequence": "CGCATAAAGACAAGAACACACATATAGATTGTAGTA [CACACA_site3693]", "gcPBM binding intensity (ln)": "9.02 ± 0.44"}
{"sequence": "AAAAAAAATTATATATGTACTTATTAATCCTTTTAT [XGTACX_site1387]", "gcPBM binding intensity (ln)": "8.56 ± 0.44"}
{"sequence": "TACATATATGATAAAAGTACATATAAATATACATAA [XGTACX_site3804]", "gcPBM binding intensity (ln)": "8.74 ± 0.45"}
{"sequence": "GAAATAAAAGATGGTTGTACACCGTTTTCTCATATA [XGTACX_site5368]", "gcPBM binding intensity (ln)": "8.73 ± 0.38"}
{"sequence": "TATATGAATAAACATTGTACGTAAATATTAACTATC [XGTACX_site543]", "gcPBM binding intensity (ln)": "8.8 ± 0.38"}
{"sequence": "AAAGAGAACATAAGTACACACATGTTCTTTTAGTAA [CACACA_site2824]", "gcPBM binding intensity (ln)": "8.95 ± 0.56"}
{"sequence": "AAAGTAAAAACACATACATGCATATACACATATAAC [TGCATGCA_site341]", "gcPBM binding intensity (ln)": "9.16 ± 0.46"}
{"sequence": "AAAAAAAAAAAAAAAACACACAAAAGCAAGAAAAAC [CACACA_site3198]", "gcPBM binding intensity (ln)": "9.23 ± 0.52"}
{"sequence": "ATAAATATGTATTGCTGTACATATATATAAATTATC [XGTACX_site8411]", "gcPBM binding intensity (ln)": "8.76 ± 0.41"}
{"sequence": "AATAGGAAAACCTATACACACTTTAAAAAAAATATA [CACACA_site4977]", "gcPBM binding intensity (ln)": "8.71 ± 0.49"}
{"sequence": "TTTCTTATTTTTTTCACACACTAAACATTTCAAATG [CACACA_site5259]", "gcPBM binding intensity (ln)": "8.91 ± 0.54"}
{"sequence": "TCAATAAGATTATAAAGTACTTTTGAAGATATTATA [XGTACX_site7489]", "gcPBM binding intensity (ln)": "8.36 ± 0.43"}
{"sequence": "AAATAAATAAATAAATGTACACATATATATATATAT [XGTACX_site7787]", "gcPBM binding intensity (ln)": "9.575 ± 0.092"}
{"sequence": "AAATATTTAAATATTATGTATGATTATATATATATA [CACACA_negctrl_site590]", "gcPBM binding intensity (ln)": "8.56 ± 0.35"}
{"sequence": "TATATATTTAGTTAGTGTACAAGTTATTTAGTAGTT [XGTACX_site5133]", "gcPBM binding intensity (ln)": "8.69 ± 0.44"}
{"sequence": "AAAAAAATAATGTATATATAAATTTATTTACATATG [GTGCAC_negctrl_site107]", "gcPBM binding intensity (ln)": "8.41 ± 0.47"}
{"sequence": "TCTTTTAACAAATAATAAGCTAATTTATATTATTAT [GTGCAC_negctrl_site655]", "gcPBM binding intensity (ln)": "8.38 ± 0.57"}
{"sequence": "TAAAAAATAAGATATACACACATATATTTATTTATA [CACACA_site7158]", "gcPBM binding intensity (ln)": "8.69 ± 0.44"}
{"sequence": "CATATTTTCTTGTGTACACATTTATTTTATACTATA [CACACA_site6032]", "gcPBM binding intensity (ln)": "9.29 ± 0.47"}
{"sequence": "CAAATAAATTAAAGGTGTACTTTTATAGTTACGACA [XGTACX_site3926]", "gcPBM binding intensity (ln)": "8.56 ± 0.51"}
{"sequence": "TAAAAAATTTTCGCGTGTACGCAAGAAAAAAAAAAT [XGTACX_site3058]", "gcPBM binding intensity (ln)": "8.84 ± 0.42"}
{"sequence": "TTTTTGCCATATTACACACACACATGGAAACCCCCT [CACACA_site4994]", "gcPBM binding intensity (ln)": "9.68 ± 0.36"}
{"sequence": "TTATAGAGCTTATTCACACATACATATGTATTTATA [CACACA_site5775]", "gcPBM binding intensity (ln)": "8.95 ± 0.45"}
{"sequence": "TAAAACATATAAAGGTGTACGCCTTTTTGTATCAAT [XGTACX_site6064]", "gcPBM binding intensity (ln)": "8.65 ± 0.47"}
{"sequence": "ATAATAAAAATATACTGTACATTTGTAAATTCTTTT [XGTACX_site4655]", "gcPBM binding intensity (ln)": "8.66 ± 0.44"}
{"sequence": "TATATTTGTTGACACACACACAAAAAAAAAAAAAAA [CACACA_site7211]", "gcPBM binding intensity (ln)": "9.23 ± 0.54"}
{"sequence": "GTCTACTACACTAAATGTACAAGAAAAAAGAAAAAA [XGTACX_site4660]", "gcPBM binding intensity (ln)": "8.55 ± 0.58"}
{"sequence": "AAGAGTAAAATATGGTTGCACTAAAAATATATATTT [GTGCAC_site9484]", "gcPBM binding intensity (ln)": "8.67 ± 0.54"}
{"sequence": "CTTAATATATGTGGCACACATGTGGAGTCCTATTAA [CACACA_site4281]", "gcPBM binding intensity (ln)": "8.99 ± 0.37"}
{"sequence": "AAAAAAATATTAATGTGTACATAATAATAACATATA [XGTACX_site8319]", "gcPBM binding intensity (ln)": "8.78 ± 0.55"}
{"sequence": "TATAAAATTCTGACTTGTACATGTGAAAAATAATTA [XGTACX_site1396]", "gcPBM binding intensity (ln)": "8.54 ± 0.43"}
{"sequence": "TATATATATATATAATGTACACATTTTTATAACTAT [XGTACX_site5714]", "gcPBM binding intensity (ln)": "9.02 ± 0.35"}
{"sequence": "GCGTTGTTTTTAAAAAGTACATTTTTATATAAGTTA [XGTACX_site8780]", "gcPBM binding intensity (ln)": "8.54 ± 0.46"}
{"sequence": "AAAATACAATTTCTAGCACACAAAATATTATTATAA [CACACA_site9056]", "gcPBM binding intensity (ln)": "8.7 ± 0.43"}
{"sequence": "AAAGATGGAAAAAAAAATTTGTGTGTTGAAAGATAT [GTGCAC_negctrl_site19]", "gcPBM binding intensity (ln)": "8.85 ± 0.61"}
{"sequence": "TTTGTTTTTTTGAGAGTGCAATATATATAAAAAGGG [GTGCAC_site9691]", "gcPBM binding intensity (ln)": "8.35 ± 0.3"}
{"sequence": "TTGGTGATATTTTTCTCACACATTTACCAGAGATGT [CACACA_site4684]", "gcPBM binding intensity (ln)": "9.06 ± 0.44"}
{"sequence": "CATAATAAGTATAACGTTAGTTACAAACAGCTTGTT [CACACA_negctrl_site937]", "gcPBM binding intensity (ln)": "9 ± 0.38"}
{"sequence": "TATTATTCAAAATTTGTGCACAAAATTAAAGGAACA", "gcPBM binding intensity (ln)": "8.74 ± 0.42"}
{"sequence": "TTTTTAAATAAATGTTTTTATTATATACATATCAAT [TGCATGCA_negctrl_site423]", "gcPBM binding intensity (ln)": "8.49 ± 0.51"}
{"sequence": "AAAATAATGTATATAGTGCAAATGAAAACGAAAAAA [GTGCAC_site9455]", "gcPBM binding intensity (ln)": "9.06 ± 0.45"}
{"sequence": "TATTTATATATTTATGCATGTTATAGGCAAAAATGT [TGCATGCA_site397]", "gcPBM binding intensity (ln)": "8.47 ± 0.39"}
{"sequence": "TATATTGATGATGATAGTACGTATGAATACAAAAAA [XGTACX_site4]", "gcPBM binding intensity (ln)": "8.79 ± 0.53"}
{"sequence": "GTAGATATTTATTGAGTGCATGTTATAAAGGGAAAA [GTGCAC_site9481]", "gcPBM binding intensity (ln)": "8.7 ± 0.55"}
